Results reported in patent publication US20210139579A1.

Target: human ROR1 (hROR1) on the cell surface (human) (UniProt Q01973)
Assay: cell-based or functional assay

Chain of UniProt Q01973 (Q01973 30-937): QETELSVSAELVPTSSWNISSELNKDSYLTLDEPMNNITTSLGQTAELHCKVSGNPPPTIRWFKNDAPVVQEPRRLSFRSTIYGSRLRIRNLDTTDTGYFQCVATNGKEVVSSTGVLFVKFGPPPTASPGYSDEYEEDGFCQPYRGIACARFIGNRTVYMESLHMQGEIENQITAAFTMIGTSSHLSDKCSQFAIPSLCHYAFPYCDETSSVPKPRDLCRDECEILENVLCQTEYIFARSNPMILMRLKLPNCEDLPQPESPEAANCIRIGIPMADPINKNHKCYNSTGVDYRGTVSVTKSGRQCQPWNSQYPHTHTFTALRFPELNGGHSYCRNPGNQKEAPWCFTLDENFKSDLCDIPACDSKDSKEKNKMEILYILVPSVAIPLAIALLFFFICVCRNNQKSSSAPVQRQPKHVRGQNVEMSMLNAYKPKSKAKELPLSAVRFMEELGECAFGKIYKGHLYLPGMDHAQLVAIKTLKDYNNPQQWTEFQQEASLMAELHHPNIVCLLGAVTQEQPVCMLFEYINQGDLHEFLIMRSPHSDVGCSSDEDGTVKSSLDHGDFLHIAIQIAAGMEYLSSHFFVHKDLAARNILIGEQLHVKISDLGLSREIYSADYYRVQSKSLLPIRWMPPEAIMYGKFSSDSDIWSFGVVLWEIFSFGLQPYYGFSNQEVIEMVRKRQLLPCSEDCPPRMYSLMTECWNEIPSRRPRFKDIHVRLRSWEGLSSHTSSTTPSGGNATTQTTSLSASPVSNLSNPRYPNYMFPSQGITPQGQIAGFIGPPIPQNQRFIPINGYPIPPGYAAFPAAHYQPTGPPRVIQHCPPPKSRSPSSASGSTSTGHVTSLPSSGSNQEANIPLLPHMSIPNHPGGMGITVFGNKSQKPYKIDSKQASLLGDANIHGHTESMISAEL

| Binder | IC50, in vitro cell killing of 697 cells | IC50, in vitro cell killing of hROR1-overexpressing EMT-6 cells [nM] |
| --- | --- | --- |
| ERR1-324-scFv-G5-PNU (adc252) (Fc fusion, EDA-PNU-159682 derivative on the C-terminal glycine (G5-PNU joined by sortase)) ELVLTQTPSPVSAAVGGTVTINCQASQSVYGNNELAWYQQKPGQPPKLLIYRASILTSGVPSRFKGSGSGTQFTLTISNVQREDAATYYCLGGYVSQSYRAAFGGGTELEILGGGGSGGGGSGGGGSQSLEESGGGLVQPGESLTLTCTVSGFSLSRNGMTWVRQAPGKGLEWIGIITSSGDKYYATWAKGRFTISKTSSTTVDLKMTSLTTEDTATYFCARGTVSSDIWGPGTLVTISS[left out - human IgG1 Fc with C220S (EU numbers)]LPETGGGGG | 6190 ng/mL | – |
| XBR1-402-scFv-324-scFv-G5-PNU (adc249) (bispecific antibody, EDA-PNU-159682 derivative on the C-terminal glycine (G5-PNU joined by sortase)) chain 1: SYELTQLPSVSVSLGQTARITCEGNNIGSKAVHWYQQKPGLAPGLLIYDDDERPSGVPDRFSGSNSGDTATLTISGAQAGDEADYYCQVWDSSAYVFGGGTQLTVTGGGGSGGGGSGGGGSQEQQKESGGGLFKPTDTLTLTCTASGFDISSYYMSWVRQAPGNGLEWIGAIGISGNAYYASWAKSRSTITRNTNLNTVTLKMTSLTAADTATYFCARDHPTYGMDLWGPGTLVTVSS[left out - human IgG1 Fc with changes]LPETGGGGG chain 2: ELVLTQTPSPVSAAVGGTVTINCQASQSVYGNNELAWYQQKPGQPPKLLIYRASILTSGVPSRFKGSGSGTQFTLTISNVQREDAATYYCLGGYVSQSYRAAFGGGTELEILGGGGSGGGGSGGGGSQSLEESGGGLVQPGESLTLTCTVSGFSLSRNGMTWVRQAPGKGLEWIGIITSSGDKYYATWAKGRFTISKTSSTTVDLKMTSLTTEDTATYFCARGTVSSDIWGPGTLVTISS[left out - human IgG1 Fc with changes]LPETGGGGG | 236 ng/mL | – |
| ERR1-324-LL-R12-G5-PNU (adc402) (bispecific antibody, EDA-PNU-159682 derivative on the C-terminal glycine (G5-PNU joined by sortase)) heavy: QSLEESGGGLVQPGESLTLTCTVSGFSLSRNGMTWVRQAPGKGLEWIGIITSSGDKYYATWAKGRFTISKTSSTTVDLKMTSLTTEDTATYFCARGTVSSDIWGPGTLVTISSASTKGPSVFPLAPQEQLVESGGRLVTPGGSLTLSCKASGFDFSAYYMSWVRQAPGKGLEWIATIYPSSGKTYYATWVNGRFTISSDNAQNTVDLQMNSLTAADRATYFCARDSYADDGALFNIWGPGTLVTISS[left out - human IgG1 constant region]LPETGGGGG light: ELVLTQTPSPVSAAVGGTVTINCQASQSVYGNNELAWYQQKPGQPPKLLIYRASILTSGVPSRFKGSGSGTQFTLTISNVQREDAATYYCLGGYVSQSYRAAFGGGTELEILRTVAAPSVFIFPPELVLTQSPSVSAALGSPAKITCTLSSAHKTDTIDWYQQLQGEAPRYLMQVQSDGSYTKRPGVPDRFSGSSSGADRYLIIPSVQADDEADYYCGADYIGGYVFGGGTQLTVTGQPKAAPSVTLFPPSSEELQANKATLVCLISDFYPGAVTVAWKADSSPVKAGVETTTPSKQSNNKYAASSYLSLTPEQWKSHKSYSCQVTHEGSTVEKTVAPTECSGGGGGSLPETGGGGG | 1.7 nM | – |
| scFv-Ig_324_4-2-G3-PNU (adc598) (bispecific antibody, EDA-PNU-159682 derivative on the C-terminal glycine (G3-PNU joined by sortase)) heavy: QSLEESGGGLVQPGESLTLTCTVSGFSLSRNGMTWVRQAPGKGLEWIGIITSSGDKYYATWAKGRFTISKTSSTTVDLKMTSLTTEDTATYFCARGTVSSDIWGPGTLVTISSGGGGSGGGGSGGGGSGGGGSELVLTQTPSPVSAAVGGTVTINCQASQSVYGNNELAWYQQKPGQPPKLLIYRASILTSGVPSRFKGSGSGTQFTLTISNVQREDAATYYCLGGYVSQSYRAAFGGGTELEILGGGSGGGSGGGSGGGSGGGSQEQQKESGGGLFKPTDTLTLTCTASGFDISSYYMSWVRQAPGNGLEWIGAIGISGNAYYASWAKSRSTITRNTNLNTVTLKMTSLTAADTATYFCARDHPTYGMDLWGPGTLVTVSS[left out - human IgG1 constant region and a few adjoining residues] light: SYELTQLPSVSVSLGQTARITCEGNNIGSKAVHWYQQKPGLAPGLLIYDDDERPSGVPDRFSGSNSGDTATLTISGAQAGDEADYYCQVWDSSAYVFGGGTQLTVTGQPKAAPSVTLFPPSSEELQANKATLVCLISDFYPGAVTVAWKADSSPVKAGVETTTPSKQSNNKYAASSYLSLTPEQWKSHKSYSCQVTHEGSTVEKTVAPTECSGGGGGSLPETGGG | – | 0.9 |
| XBR1-402-scFv-G5-PNU (adc251) (Fc fusion, EDA-PNU-159682 derivative on the C-terminal glycine (G5-PNU joined by sortase)) SYELTQLPSVSVSLGQTARITCEGNNIGSKAVHWYQQKPGLAPGLLIYDDDERPSGVPDRFSGSNSGDTATLTISGAQAGDEADYYCQVWDSSAYVFGGGTQLTVTGGGGSGGGGSGGGGSQEQQKESGGGLFKPTDTLTLTCTASGFDISSYYMSWVRQAPGNGLEWIGAIGISGNAYYASWAKSRSTITRNTNLNTVTLKMTSLTAADTATYFCARDHPTYGMDLWGPGTLVTVSS[left out - human IgG1 Fc with C220S (EU numbers)]LPETGGGGG | 456 ng/mL | – |
